From PubChem BioAssay (NCI)
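Cells were grown in 96-well plates and exposed to each compound for 48 hours at five concentrations; endpoints were interpolated linearly between bracketing concentrations, or set to the highest concentration if not reached. GI50 marks 50% less growth. TGI marks complete inhibition of growth.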

These compounds were tested on NCI-H322M lung (assay: NCI tumour cell line growth inhibition, 48 h).

`NC(=O)C1CCCN1Cc1ccc2c(c1)OCO2` (stereo not given) and `COc1ccc(CC2OC3(CCCCC3)CC3CCCCN32)cc1` (stereo not given) cannot be ordered by TGI: greater than 100 µM for the first, greater than 100 µM for the second.

`Cc1cc(C2CC(O)C(CO)O2)c(Br)cc1Br` (stereo not given) and `Cc1cccc(N=Nc2ccc(O)c(CN(C)C)c2)c1` cannot be ordered by TGI: greater than 100 µM for the first, greater than 100 µM for the second.

`Nc1[nH]c(=S)[nH]c(=O)c1N=Nc1c(Br)cc(S(N)(=O)=O)cc1Br` and `CC(=O)Nc1ccc2c(c1)[nH]c(=O)c1cc(NC(C)=O)ccc12` cannot be ordered by TGI: greater than 100 µM for the first, greater than 100 µM for the second.

Compared with `CN(C)CCNC(=O)c1cccc2c(NC(CCCN=C(N)N)C(=O)O)c3ccccc3nc12` (stereo not given), `COC(=O)c1cc(NC(=O)Cn2c3ccccc3c3ccccc32)cn1C` is higher in TGI: 65.3 µM for the first, greater than 100 µM for the second.

`Clc1cc2ns[s+]c2cc1Cl` and `C#CCN(Cc1ccc2nc(-c3ccccc3)c(Cl)nc2c1)c1ccc(Cl)c(Cl)c1` cannot be ordered by TGI: greater than 100 µM for the first, greater than 100 µM for the second.

`CCCCCCCCCCCCCC(=O)OCC1OC(=O)C(O)C1O` (stereo not given) and `CCCC(CCC(=O)O)(CCC(=O)O)[N+](=O)[O-]` cannot be ordered by TGI: greater than 100 µM for the first, greater than 100 µM for the second.

`Cc1ccc(C2=C(c3ccccc3)C(O)(c3ccccc3)C(c3ccccc3)=C2c2ccc(C)cc2)cc1` and `C1=Nc2ccc(cc2)-c2ccc(cc2)N=Cc2ccccc2OCc2cccc(n2)COc2ccccc21` cannot be ordered by TGI: greater than 100 µM for the first, greater than 100 µM for the second.

First: NS(=O)(=O)c1ccc(NC(=O)Nc2cccc3ccccc23)cc1
Second: Clc1ccc(Nc2nnc(COc3ccccc3)c3ccccc23)cc1
The TGI of the first is higher: greater than 100 µM for the first, 8.2 µM for the second.

`O=S1c2ccccc2N=C(c2cccs2)CC1c1ccccc1O` (stereo not given) and `S=C1NC(c2ccccc2)NC(c2ccccc2)S1` (stereo not given) cannot be ordered by TGI: greater than 100 µM for the first, greater than 100 µM for the second.

`CCN1C(=O)N(CC)C2C1NN=c1s/c(=C\c3ccc(Br)cc3)c(=O)n12` (stereo not given) and `Cc1ccc2c(=O)cc(-c3ccccc3)[nH]c2n1` cannot be ordered by TGI: greater than 100 µM for the first, greater than 40.7 µM for the second.

`O=C(Nc1c(Cl)cccc1Cl)Oc1cccc2cccnc12` and `COc1ccccc1-c1nc[nH]c1-c1ccccc1OC` cannot be ordered by TGI: greater than 100 µM for the first, greater than 100 µM for the second.

Compared with `Cc1cc(S(=O)(=O)Nc2nc3ccccc3s2)c(SCc2ccccc2)cc1Cl`, `CS(=O)(=O)Nc1cc(-c2ccc3ncnc(Nc4ccc(OCc5ccccn5)c(Cl)c4)c3c2)cnc1Cl` is 12-fold lower in TGI: 43.8 µM for the first, 3.58 µM for the second.

Compared with `O=C(/C=C/c1cc2ccccc2[nH]c1=O)c1ccc(O)cc1`, `O=C1C2=C(c3ccccc31)C(c1ccc([N+](=O)[O-])cc1)NC(=S)N2` (stereo not given) is higher in TGI: 16.8 µM for the first, greater than 100 µM for the second.

`OC(CBr)C(O)C(O)C(O)CBr` (stereo not given) and `O=[N+]([O-])c1cc(-c2ccc([As](=O)(O)O)cc2)ccc1[As](=O)(O)O` cannot be ordered by TGI: greater than 100 µM for the first, greater than 100 µM for the second.

Compared with `c1ccc(C(OCCN2CC3CCC(C2)N3)c2ccccc2)cc1`, `CCCN1CCN(c2ccc3nc(-c4ccc5nc(-c6ccc(OCC)cc6)[nH]c5c4)[nH]c3c2)CC1` is lower in TGI: greater than 100 µM for the first, 3.06 µM for the second.

Going from `CC(C)(C)c1cc([Si](C)(C)C)c(C#N)c([Si](C)(C)C)c1` to `Cc1cc(NCCCCCCCCNc2cc(C)nc3cc(N(C)C)ccc23)c2ccc(N(C)C)cc2n1`, the TGI falls from greater than 100 µM to 26.2 µM.

`O=C(Nc1n[nH]c2cc(-c3ccc(F)cc3)ccc12)C1CC1` and `COc1cc2c(cc1OC)C/C(=N\O)c1cc(OC)c(OC)cc1/C=C\2` cannot be ordered by TGI: greater than 25 µM for the first, greater than 79 µM for the second.

With `Clc1cccc(C=NC23CC4CC(CC(C4)C2)C3)c1Cl` the TGI was greater than 10 µM.

First: Cc1cc(C2CC(O)C(CO)O2)c(Br)cc1Br (stereo not given)
Second: CCN1C(=O)N(CC)C2C1NN=c1s/c(=C\c3ccc(Br)cc3)c(=O)n12 (stereo not given)
The GI50 of the first is higher: greater than 100 µM for the first, 0.738 µM for the second.

`O=C(Nc1c(Cl)cccc1Cl)Oc1cccc2cccnc12` and `O=C(/C=C/c1cc2ccccc2[nH]c1=O)c1ccc(O)cc1` are within 1.5-fold of each other in GI50: 5.11 µM for the first, 3.98 µM for the second.

First: Cc1cc(S(=O)(=O)Nc2nc3ccccc3s2)c(SCc2ccccc2)cc1Cl
Second: CS(=O)(=O)Nc1cc(-c2ccc3ncnc(Nc4ccc(OCc5ccccn5)c(Cl)c4)c3c2)cnc1Cl
The GI50 of the first is 29-fold higher: 13.8 µM for the first, 0.468 µM for the second.

First: Clc1ccc(Nc2nnc(COc3ccccc3)c3ccccc23)cc1
Second: CC(=O)Nc1ccc2c(c1)[nH]c(=O)c1cc(NC(C)=O)ccc12
The GI50 of the first is lower: 1.56 µM for the first, greater than 100 µM for the second.

Going from `O=C(Nc1n[nH]c2cc(-c3ccc(F)cc3)ccc12)C1CC1` to `CCCN1CCN(c2ccc3nc(-c4ccc5nc(-c6ccc(OCC)cc6)[nH]c5c4)[nH]c3c2)CC1`, the GI50 falls from 13.2 µM to 1.64 µM (8-fold).
